In patent US20160326231A1 (FUDAN UNIVERSITY SHANGHAI CANCER CENTER, published 2016) one finds Kd, koff and kon data, which are given here for one molecule.

What all share (test): SPR, Biacore T200, His-tagged fusion captured on NTA chip, C3 fragment as analyte
In general terms: Surface plasmon resonance follows binding to a sensor surface in real time, without labels.

One assay has as its target T1, C3b (UniProt P01024 23-667; P01024 partial chain).
T1 construct: domain: C3b; Bought protein; also called C3 enzymolysis product
An excerpt: (§1) Surface plasmon resonance (SPR) is a technology used for analyzing the biological macromolecule interactions, which can qualitatively judge whether there is interaction between two molecules or to compare the strength of the interactions between a molecule with a variety of molecules. It can also quantitatively determine the affinity parameter (equilibrium constant) and dynamics parameter (rate constant), even thermodynamic parameters (reaction enthalpies) in real time. This technology utilizes the principle of physical optics. In the study of the interaction between two molecules, a molecule is fixed on the surface of the sensor chip, the solution of another kind of molecule is flowed through the surface of the chip. The combination of the two molecules will change the refractive index of the sensor chip surface, which can be used to detect the interaction between the two molecules. The kinetics analysis and affinity determination of the complement inhibitor CRIg-fH with C3 enzymolysis products are performed by using BlAcore T200 based on the principle of SPR. The Series S Sensor NTA chip is chosen for the CRIg-fHHi label. The experiment method is as follows:
(§2) (3) ligand coupling: the CRIg-fH fusion protein is diluted to 0.2 μg/ml ligand solution by HBS-N running buffer, inject the ligand solution once, at 25° C., the flow rate is 30 μl/min, the sustain time is 60 sec, the stability time is 30 sec.
(§3) (8) the kinetic curve is simulated and the kinetic parameters (including association constant Ka, dissociation constant Kd and equilibrium dissociation constant KD) are determined by BIAcore T200 v2.02 software.

In the next assay the target is T2, C3c (UniProt P01024 23-667; P01024 749-954; P01024 1321-1663, limits assumed).
T2 construct: domain: C3c; Bought protein
Description: as §1, §2, §3

Another assay addresses T3, iC3b (UniProt P01024 23-667; P01024 749-1303; P01024 1321-1663).
T3 construct: domain: iC3b; Bought protein
Description: as §1, §2, §3

C3b, sequence (P01024 23-667 limits assumed, chain 1 of 2): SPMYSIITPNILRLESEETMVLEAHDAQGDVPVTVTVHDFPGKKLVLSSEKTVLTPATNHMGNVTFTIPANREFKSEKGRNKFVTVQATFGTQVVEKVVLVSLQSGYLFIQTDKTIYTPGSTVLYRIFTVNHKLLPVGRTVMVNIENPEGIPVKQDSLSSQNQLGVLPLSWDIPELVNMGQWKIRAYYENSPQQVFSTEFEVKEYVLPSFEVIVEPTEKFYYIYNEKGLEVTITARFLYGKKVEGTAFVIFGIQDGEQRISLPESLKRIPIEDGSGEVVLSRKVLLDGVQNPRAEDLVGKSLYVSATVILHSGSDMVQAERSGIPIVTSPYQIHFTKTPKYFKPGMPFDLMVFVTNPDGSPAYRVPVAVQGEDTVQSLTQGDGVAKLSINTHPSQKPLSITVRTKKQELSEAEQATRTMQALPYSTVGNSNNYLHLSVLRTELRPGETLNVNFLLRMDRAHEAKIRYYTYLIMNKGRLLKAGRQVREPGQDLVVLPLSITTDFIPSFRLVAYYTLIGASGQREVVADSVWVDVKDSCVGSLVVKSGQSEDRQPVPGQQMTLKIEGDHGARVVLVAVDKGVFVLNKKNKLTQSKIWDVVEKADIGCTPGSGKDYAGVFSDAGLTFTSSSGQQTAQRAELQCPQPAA
C3b, sequence (P01024 749-1663 limits assumed, chain 2 of 2): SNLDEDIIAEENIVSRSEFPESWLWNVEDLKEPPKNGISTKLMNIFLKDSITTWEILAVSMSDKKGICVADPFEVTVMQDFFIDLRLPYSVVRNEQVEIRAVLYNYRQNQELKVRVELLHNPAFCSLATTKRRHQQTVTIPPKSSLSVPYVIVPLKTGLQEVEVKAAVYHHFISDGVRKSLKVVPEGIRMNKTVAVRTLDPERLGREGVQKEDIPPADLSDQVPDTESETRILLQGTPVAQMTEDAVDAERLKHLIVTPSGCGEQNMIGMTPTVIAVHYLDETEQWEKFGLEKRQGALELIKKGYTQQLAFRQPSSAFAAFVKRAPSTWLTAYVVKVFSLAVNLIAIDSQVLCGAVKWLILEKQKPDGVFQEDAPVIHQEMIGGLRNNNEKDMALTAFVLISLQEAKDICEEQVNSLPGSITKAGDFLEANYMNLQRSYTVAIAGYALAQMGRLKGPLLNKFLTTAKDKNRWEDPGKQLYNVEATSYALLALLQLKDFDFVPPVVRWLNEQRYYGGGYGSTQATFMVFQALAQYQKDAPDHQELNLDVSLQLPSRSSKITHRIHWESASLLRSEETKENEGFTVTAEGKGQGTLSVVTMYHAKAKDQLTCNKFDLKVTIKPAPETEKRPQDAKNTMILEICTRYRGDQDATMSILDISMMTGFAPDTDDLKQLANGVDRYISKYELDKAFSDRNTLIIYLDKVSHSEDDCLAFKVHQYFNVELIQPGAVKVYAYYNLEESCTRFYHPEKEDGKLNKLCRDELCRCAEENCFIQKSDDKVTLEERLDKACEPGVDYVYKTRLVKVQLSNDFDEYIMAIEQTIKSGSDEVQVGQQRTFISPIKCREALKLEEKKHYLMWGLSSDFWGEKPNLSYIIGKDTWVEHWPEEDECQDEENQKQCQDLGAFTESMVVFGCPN
C3c, sequence (P01024 23-667 limits assumed, chain 1 of 3): as the sequence (P01024 23-667 limits assumed, chain 1 of 2) above
C3c, sequence (P01024 749-954 limits assumed, chain 2 of 3): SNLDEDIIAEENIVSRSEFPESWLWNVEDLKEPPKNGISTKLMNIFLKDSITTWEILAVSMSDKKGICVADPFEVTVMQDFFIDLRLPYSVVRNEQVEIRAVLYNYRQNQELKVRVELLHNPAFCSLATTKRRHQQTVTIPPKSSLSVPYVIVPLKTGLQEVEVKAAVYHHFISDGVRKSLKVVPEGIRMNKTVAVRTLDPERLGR
C3c, sequence (P01024 1321-1663 limits assumed, chain 3 of 3): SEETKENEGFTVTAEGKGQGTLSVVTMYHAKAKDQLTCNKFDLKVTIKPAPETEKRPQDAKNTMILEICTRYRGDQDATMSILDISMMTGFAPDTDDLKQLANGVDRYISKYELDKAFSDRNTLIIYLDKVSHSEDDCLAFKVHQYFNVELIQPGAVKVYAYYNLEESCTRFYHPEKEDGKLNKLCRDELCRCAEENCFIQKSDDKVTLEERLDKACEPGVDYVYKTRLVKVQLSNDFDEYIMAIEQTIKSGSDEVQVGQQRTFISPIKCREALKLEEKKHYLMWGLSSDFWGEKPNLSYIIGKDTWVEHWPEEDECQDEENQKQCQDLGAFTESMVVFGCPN
iC3b, sequence (P01024 23-667 limits assumed, chain 1 of 3): as the sequence (P01024 23-667 limits assumed, chain 1 of 2) above
iC3b, sequence (P01024 749-1303 limits assumed, chain 2 of 3): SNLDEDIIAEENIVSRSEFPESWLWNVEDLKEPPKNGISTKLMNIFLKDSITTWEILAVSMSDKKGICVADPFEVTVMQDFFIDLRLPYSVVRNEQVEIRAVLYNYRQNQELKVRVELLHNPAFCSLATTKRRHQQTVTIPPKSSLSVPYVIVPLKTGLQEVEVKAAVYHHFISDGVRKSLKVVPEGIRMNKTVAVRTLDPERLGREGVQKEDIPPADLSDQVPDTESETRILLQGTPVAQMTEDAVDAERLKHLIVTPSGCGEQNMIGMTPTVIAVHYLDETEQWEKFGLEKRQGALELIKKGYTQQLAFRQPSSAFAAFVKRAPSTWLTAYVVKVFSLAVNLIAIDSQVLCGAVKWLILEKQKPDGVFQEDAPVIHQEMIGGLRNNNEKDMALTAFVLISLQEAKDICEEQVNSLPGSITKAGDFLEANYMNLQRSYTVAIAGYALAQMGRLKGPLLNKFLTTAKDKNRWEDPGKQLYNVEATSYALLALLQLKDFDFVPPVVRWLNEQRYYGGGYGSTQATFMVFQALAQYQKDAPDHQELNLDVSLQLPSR
iC3b, sequence (P01024 1321-1663 limits assumed, chain 3 of 3): as the sequence (P01024 1321-1663 limits assumed, chain 3 of 3) above

B1: CRIg-L-fH (other)
chain: [letters of about 120 residues omitted]SGGGGSGGGGSGGGGEDCNELPPRRNTEILTGSWSDQTYPEGTQAIYKCRPGYRSLGNVIMVCRKGEWVALNPLRKCQKRPCGHPGDTPFGTFTLTGGNVFEYGVKAVYTCNEGYQLLGEINYRECDTDGWTNDIPICEVVKCLPVTAPENGKIVSSAMEPDREYHFGQAVRFVCNSGYKIEGDEEMHCSDDGFWSKEKPKCVEISCKSPDVINGSPISQKIIYKENERFQYKCNMGYEYSERGDAVCTESGWRPLPSCEEKSCDNPYIPNGDYSPLRIKHRTGDEITYQCRNGFYPATRGNTAKCTSTGWIPAPRCTLK
notes: Expressed from pHLsec-CRIg-L-fH in 293FT cells and secreted; also called CRIg-(Gly4Ser)3-fH; recombinant protein CRIg-L-fH; not shown: His tag implied by Ni2+ column purification, NTA chip capture and anti-His detection
Turning to B1, in the assay with C3b, the Kd was 234 nM, the koff stood at 0.00375 s⁻¹ and the kon worked out at 16500 M⁻¹ s⁻¹. Further, in the assay with C3c, the Kd came out at 2490 nM, the koff was determined as 0.00615 s⁻¹ and the kon is 2480 M⁻¹ s⁻¹. Further, in the assay with iC3b, the Kd is 3510 nM and the koff worked out at 0.00362 s⁻¹.

What is called Kd is the constant that tells how readily two partners part at equilibrium. Broadly, the koff is the rate constant with which the complex falls apart. The term kon denotes the second-order rate constant of association.
